# From the RNAGym collection of RNA variant scans (doi:10.7554/elife.90254)
# The source gives no read counts; variants with many changes may rest on few reads.
# B1: LINE1-mini (parent)
# chain: GGCAGAGCUCAACACAGCGUGGCAAAGUGGCUGUGGCUAGACUGCC
# Variants of: B1
# Assay: self-cleavage, relative activity (ratio to wild type); higher = more cleavage; in vitro, sequencing; the parent is a self-cleaving ribozyme
row,Variant,self-cleavage
1,GGCAGAGCUCAACACAGCGUGGCGAAGUGACUGUGAAUAGACUGUC,0.05
2,GGCAGAGCUCAACACAGCGUGGCGAAGUGUCUGUGGCUAGUCUGCC,0.26
3,GGCAGAGCUCAACACAGCGUGGCGAAGUGUCUGUGGCUAGAGUGCC,0.03
4,GGCAGAGCUCAACACAGCGUGGCGAAGUGUCUGUGCCUAGACUGCC,0.03
5,GGCAGAGCUCAACACAGCGUGGCGAAGUGGCUAUGGCGAGACUGCC,0.09
6,GGCAGAGCUCAACACAGCGUGGCGAAGUGGCUGUAGCUACACUGCC,0.09
7,GGCAGAGCUCAACACAGCGUGGCGAAGUGGCUGUCACGAGGCUGCC,0.02
8,GGCAGAGCUCAACACAGCGUGGCGAAGUGGCUGUGCAUAGACUGGC,0.09
9,GGCAGAGCUCAACACAGCGUGGCGAAGUGGCUGUGGCUAUACAGCC,0.08
10,GGCAGAGCUCAACACAGCGUGGCGAAGAGGCUGUGGCUAGAUUGCC,0.11
11,GGCAGAGCUCAACACAGCGUGGCGAAGCGGCUGUGGCUAGGCUGCC,0.14
12,GGCAGAGCUCAACACAGCGUGGCGAAGCGGCUAUGGCUGGACUGCC,0.09
13,GGCAGAGCUCAACACAGCGUGGCGAAGCGGCUCUGGCUACACUUCC,0.01
14,GGCAGAGCUCAACACAGCGUGGCGAAGGGGCUGUGGCGAGGCUGCC,0.02
15,GGCAGAGCUCAACACAGCGUGGCGAAGUGGCCGUGGUUAUACUGCC,0.07
16,GGCAGAGCUCAACACAGCGUGGCGAAGUGGCCGUGGCUAGACUGCA,0.15
17,GGCAGAGCUCAACACAGCGUGGCGAAGUGGCGGUGGGUAGACUGCC,0.03
18,GGCAGAGCUCAACACAGCGUGGCGAAGUGGCUGUGGCUAGACGGGC,0.02
19,GGCAGAGCUCAACACAGCGUGGCUCAGUGGCUGUGUCUAGACUGCC,0.06
20,GGCAGAGCUCAACACAGCGUGGCUGGGUGGCUGUGGCGAGACUGCC,0.02
21,GGCAGAGCUCAACACAGCGUGGCUGAGUGGAUGAGGCUUGACUGCC,0.01
22,GGCAGAGCUCAACACAGCGUGGCUGACUGACUGUGGCUAGACUGCC,0.55
23,GGCAGAGCUCAACACAGCGUGGCUGAGUGACUGUGGCUUGACUGCC,0.35

row,Variant,self-cleavage
1,GGCAGAGCUCAACACAGCGUGGCUUAGUGGCUGUGGCUAGACUGGC,0.17
2,GGCAGAGCUCAACACAGCGUGGCUUAGAGGCUGUGGUUAGACUGAC,0.01
3,GGCAGAGCUCAACACAGCGUGGCUACGUGGCUGUGGCUAGAUUGCC,0.66
4,GGCAGAGCUCAACACAGCGUGGCUACGUGGCUGUGGCUAUACUGCC,0.1
5,GGCAGAGCUCAACACAGCGUGGCUAGCUGGCUGUGGCUAUACUGCC,0.06
6,GGCAGAGCUCAACACAGCGUGGCUAUGCGGCUUUGGCUAGACUGCC,0.2
7,GGCAGAGCUCAACACAGCGUGGCUAUGUGGCUGCGGCUAGACUGCC,0.07
8,GGCAGAGCUCAACACAGCGUGGCUAAGUGGCUGUGGCUCAACUGCC,0.1
9,GGCAGAGCUCAACACAGCGUGGCUAAGUGGCUGUGGCUGCACAGCC,0.09
10,GGCAGAGCUCAACACAGCGUGGCUAAGUGGCUGUGGCUAGCGGGCC,0.2
11,GGCAGAGCUCAACACAGCGUGGCUAAGUGGCUGUGGCUAGUCGGCC,0.04
12,GGCAGAGCUCAACACAGCGUGGCUAAGUGGGUGUGGCUAGAAUGCC,0.01
13,GGCAGAGCUCAACACAGCGUGGCUAAGUGGGUGUGGCUAGACUGCU,0.02
14,GGCAGAGCUCAACACAGCGUGGCUAAGUGGUUGUGGCUAAACUGCC,0.02
15,GGCAGAGCUCAACACAGCGUGGCUAAGUGGUUGUGGCUAGACUUCC,0.04
16,GGCAGAGCUCAACACAGCGUGGCUAAGUGGCUGUGGUUAUAUUGCC,0.12
17,GGCAGAGCUCAACACAGCGUGGCUAAGUGGCUGUGGCUAGAAUACC,0.06
18,GGCAGAGCUCAACACAGCGUGGCUAAGUGGCUGUGGCUAGACUGAU,0.17
19,GGCAGAGCUCAACACAGCGUGGCUAACUGGCUGUGGGUAGGCUGCC,0.01
20,GGCAGAGCUCAACACAGCGUGGCUAACUGGCUGUGGCUAUACUGCC,0.11
21,GGCAGAGCUCAACACAGCGUGGCUAAUUGACUGUGGCUAGACUGCC,1.2
22,GGCAGAGCUCAACACAGCGUGGCUAAUUGGCUCUGGGAAGACUGCC,0.04
23,GGCAGAGCUCAACACAGCGUGGCUAAUUGGCUGUAGCUAGACUGCC,0.08

row,Variant,self-cleavage
1,GGCAGAGCUCAACACAGCGUGGCUAAGUUGCUAUGGCUUGACUGCC,0.03
2,GGCAGAGCUCAACACAGCGUGGCUAAGUUGCUGUGCCUAGACUCCC,0.04
3,GGCAGAGCUCAACACAGCGUGGCUAAGUGCUUGUGGCUAGACUGAC,0.04
4,GGCAGAGCUCAACACAGCGUGGCUAAGUGCCUGGGGCUAGACUGCC,0.03
5,GGCAGAGCUCAACACAGCGUGGCUAAGUGUCUGUGGCUUGACUGCC,0.9
6,GGCAGAGCUCAACACAGCGUGGCUAAGUGUCUGUGGCUAGGCUGCC,0.11
7,GGCAGAGCUCAACACAGCGUGGCUAAGUGUCUGUCGCUAGACUGCC,0.06
8,GGCAGAGCUCAACACAGCGUGGCUAAGUGGCUAUGUCUAGUCUGCC,0.17
9,GGCAGAGCUCAACACAGCGUGGCUAAGUGGCUUCGGCUAGACUGCC,0.03
10,GGCAGAGCUCAACACAGCGUGGCUAAGUGGCUGUAGCUAAACUGCC,0.05
11,GGCAGAGCUCAACACAGCGUGGCUAAGUGGCUGUUGCUAGACUGCG,0.09
12,GGCAGAGCUCAACACAGCGUGGCUAAGUGGCUGUUGCUAGACUACC,0.01
13,GGCAGAGCUCAACACAGCGUGGCUAAGUGGCUGUGACUAAAGUGCC,0.07
14,GGCAGAGCUCAACACAGCGUGGCUAAGUGGCUGUGACUACACUGCC,0.13
15,GGCAGAGCUCAACACAGCGUGGCUAAGUGGCUGUGCCUAGUCUGCC,0.39
16,GGCAGAGCUCAACACAGCGUGGCUAAGUGGCUGUGGCUACACUGUC,0.24
17,GGCAGAGCUCAACACAGCGUGGCUAAGUGGCUGUGGCUAUUCUGCC,0.42
18,GGCAGAGCUCAACACAGCGUGGCUAAGUGGCUGUGGCUAGACUCAC,0.07
19,GGCAGAGCUCAACACAGCGUGGCUAAGAGGUUGUGGCUAGACUGCC,1.24
20,GGCAGAGCUCAACACAGCGUGGCUAAGAAGUUGUGGCUGGACUGCC,0.15
21,GGCAGAGCUCAACACAGCGUGGCUAAGAGACUGUGGCUAGACUGCC,1.8
22,GGCAGAGCUCAACACAGCGUGGCUAAGAGGCUGUGGCUAGACUUCC,0.28
23,GGCAGAGCUCAACACAGCGUGGCUAAGAGGCGGUGGCUAGACUGCC,0.03

row,Variant,self-cleavage
1,GGCAGAGCUCAACACAGCGUGGCUAAGAGGCUGCGGCUAGACUGCA,0.08
2,GGCAGAGCUCAACACAGCGUGGCUAAGAGGCUGUGGCCAGACUGCC,0.25
3,GGCAGAGCUCAACACAGCGUGGCUAAGCGGCUCUGGCUAGACUGCC,0.07
4,GGCAGAGCUCAACACAGCGUGGCUAAGCGGCUCUGGCUUGACUGCC,0.03
5,GGCAGAGCUCAACACAGCGUGGCUAAGCGGCUGGGGCUAGACUGCC,0.25
6,GGCAGAGCUCAACACAGCGUGGCUAAGGGGCUGUGGCCAGACUGCC,0.4
7,GGCAGAGCUCAACACAGCGUGGCUAAGUGGCAGUGGGUAGACUGCC,0.08
8,GGCAGAGCUCAACACAGCGUGGCUAAGUGGCACUGGCUUGACUGCC,0.02
9,GGCAGAGCUCAACACAGCGUGGCUAAGUGGCCAUGGCUAGACGGCC,0.01
10,GGCAGAGCUCAACACAGCGUGGCUAAGUGGCUGAGGCUAGACCGCC,0.02
11,GGCAGAGCUCAACACAGCGUGGCUAAGUGGCUGCGACUAGACUGCC,0.06
12,GGCAGAGCUCAACACAGCGUGGCUAAGUGGCUGUGGCAAGAGUGCC,0
13,GGCAGAGCUCAACACAGCGUGGCUAAGUGGCUGUGGCCAGUCUGCC,0.3
14,GGCAGAGCUCAACACAGCGUGGCACGGUGGCUGUGUCUAGAUUUCC,0.08
15,GGCAGAGCUCAACACAGCGUGGCACGGUGGCUGAGGAUAGACUGCC,0.02
16,GGCAGAGCUCAACACAGCGUGGCACUGUGGGUGUGGCUAGACUGCC,0.06
17,GGCAGAGCUCAACACAGCGUGGCACAGUGGCUGUGGCUUGUUUGCG,0.05
18,GGCAGAGCUCAACACAGCGUGGCACAGUGGCUGUGGCUUGACUGCA,0.93
19,GGCAGAGCUCAACACAGCGUGGCACAGUGGCUGUGGCUUCACUGCC,0.07
20,GGCAGAGCUCAACACAGCGUGGCACAGUGGAUGUGGCUAGACUGUC,0.01
21,GGCAGAGCUCAACACAGCGUGGCACAGUGGUUGUGGCUAGUCUGCC,0.11
22,GGCAGAGCUCAACACAGCGUGGCACAGUGGUUGUGGGUAGAUUGCC,0.02
23,GGCAGAGCUCAACACAGCGUGGCACAGUGGUAGUGGUUAGACUGCC,0.12

row,Variant,self-cleavage
1,GGCAGAGCUCAACACAGCGUGGCACAGUGGCUGUGGGUAGACUCCC,0.03
2,GGCAGAGCUCAACACAGCGUGGCACAGUGGCUGUGGUCAUACUGCC,0.02
3,GGCAGAGCUCAACACAGCGUGGCACACUGGCUUUGGCUAGACUGCC,0.03
4,GGCAGAGCUCAACACAGCGUGGCACACUGGCUGUGCCUAGACUGCG,0.01
5,GGCAGAGCUCAACACAGCGUGGCACACCGGCUGUGGCUAAAUUGCC,0.24
6,GGCAGAGCUCAACACAGCGUGGCACAUUGGCUGUGGCUAGAUUGCC,0.08
7,GGCAGAGCUCAACACAGCGUGGCACAUUGGCUAUGGCUAGACUGCC,0.04
8,GGCAGAGCUCAACACAGCGUGGCACAGUAGCUGUGGCUAGGCUGCC,0.19
9,GGCAGAGCUCAACACAGCGUGGCACAGUAGAUGUGGCUAGACUGCC,0.27
10,GGCAGAGCUCAACACAGCGUGGCACAGUCGCUGUGGCUAGUCUGCC,0.5
11,GGCAGAGCUCAACACAGCGUGGCACAGUCGCUCUGGCUGGACUGCC,0
12,GGCAGAGCUCAACACAGCGUGGCACAGUCGCUGUGGCAAGACUGCC,0.13
13,GGCAGAGCUCAACACAGCGUGGCACAGUUGCUGUUCCUGGACUGCC,0.03
14,GGCAGAGCUCAACACAGCGUGGCACAGUUGCUGAGGGUAGACUGCC,0.02
15,GGCAGAGCUCAACACAGCGUGGCACAGUGUCUGUGGCUAGACUGCU,0.27
16,GGCAGAGCUCAACACAGCGUGGCACAGUGUCUGCGCCUAGACUGGC,0.02
17,GGCAGAGCUCAACACAGCGUGGCACAGUGGCUACGGCAAGAUUGCC,0.01
18,GGCAGAGCUCAACACAGCGUGGCACAGUGGCUCUAGUUAGACUGCC,0.01
19,GGCAGAGCUCAACACAGCGUGGCACAGUGGCUGUAGCUAGUCUGCA,0.08
20,GGCAGAGCUCAACACAGCGUGGCACAGUGGCUGUAGCAAGACUGCC,0.2
